Measurements reported in the supplement of paper PMC8728848.
Some of the results follow.

Columns and labels:
Assay in all cases: glycan array binding signal (z-score within array); higher = stronger binding
Settings in all cases: glycan notation: IUPAC condensed, linker removed
[1] = target: Glc(b1-3)Glc(b1-3)Glc(b1-3)Glc(b1-3)Glc(b1-3)Glc(b1-3)Glc(b1-3)Glc(b1-3)Glc(b1-3)Glc(b1-3)Glc(b1-3)Glc
In short: (§1)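 Glycan array data were curated from 3228 arrays in the Consortium for Functional Glycomics database and kept only where the protein sequence was available. Glycan names were converted to IUPAC-condensed notation, and columns mapping to the same glycan were averaged. The binding signal is a within-array Z-score, averaged across arrays of the same protein sequence at different concentrations or buffers and across linkers. Negative Z-scores can be read as non-binding.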

[2] = target: Glc(b1-3)Glc(b1-3)Glc(b1-3)Glc(b1-3)Glc(b1-3)Glc(b1-3)Glc(b1-3)Glc(b1-3)Glc(b1-3)Glc(b1-3)Glc(b1-3)Glc(b1-3)Glc
In short: as §1

Glc(b1-4)Glc = target: Glc(b1-4)Glc
In short: as §1

Glc(b1-4)Glc(b1-4)Glc = target: Glc(b1-4)Glc(b1-4)Glc
In short: as §1

[3] = target: Glc(b1-4)Glc(b1-4)Glc(b1-4)Glc
In short: as §1

[4] = target: Glc(b1-4)Glc(b1-4)Glc(b1-4)Glc(b1-4)Glc
In short: as §1

[5] = target: Glc(b1-4)Glc(b1-4)Glc(b1-4)Glc(b1-4)Glc(b1-4)Glc
In short: as §1

[6] = target: Glc(b1-4)Glc(b1-4)Glc(b1-4)Glc(b1-4)Glc(b1-4)Glc(b1-4)Glc
In short: as §1

[7] = target: Glc(b1-4)Glc(b1-4)Glc(b1-4)Glc(b1-4)Glc(b1-4)Glc(b1-4)Glc(b1-4)Glc
In short: as §1

[8] = target: Glc(b1-4)Glc(b1-4)Glc(b1-4)Glc(b1-4)Glc(b1-4)Glc(b1-4)Glc(b1-4)Glc(b1-4)Glc
In short: as §1

[9] = target: Glc(b1-4)Glc(b1-4)Glc(b1-4)Glc(b1-4)Glc(b1-4)Glc(b1-4)Glc(b1-4)Glc(b1-4)Glc(b1-4)Glc
In short: as §1

[10] = target: Glc(b1-4)Glc(b1-4)Glc(b1-4)Glc(b1-4)Glc(b1-4)Glc(b1-4)Glc(b1-4)Glc(b1-4)Glc(b1-4)Glc(b1-4)Glc
In short: as §1

[11] = target: Glc(b1-4)Glc(b1-4)Glc(b1-4)Glc(b1-4)Glc(b1-4)Glc(b1-4)Glc(b1-4)Glc(b1-4)Glc(b1-4)Glc(b1-4)Glc(b1-4)Glc
In short: as §1

[12] = target: Glc(b1-4)Glc(b1-4)Glc(b1-4)Glc(b1-4)Glc(b1-4)Glc(b1-4)Glc(b1-4)Glc(b1-4)Glc(b1-4)Glc(b1-4)Glc(b1-4)Glc(b1-4)Glc
In short: as §1

Glc(b1-6)Glc = target: Glc(b1-6)Glc
In short: as §1

Glc(b1-6)Glc(b1-6)Glc = target: Glc(b1-6)Glc(b1-6)Glc
In short: as §1

[13] = target: Glc(b1-6)Glc(b1-6)Glc(b1-6)Glc
In short: as §1

[14] = target: Glc(b1-6)Glc(b1-6)Glc(b1-6)Glc(b1-6)Glc
In short: as §1

[15] = target: Glc(b1-6)Glc(b1-6)Glc(b1-6)Glc(b1-6)Glc(b1-6)Glc
In short: as §1

[16] = target: Glc(b1-6)Glc(b1-6)Glc(b1-6)Glc(b1-6)Glc(b1-6)Glc(b1-6)Glc
In short: as §1

[17] = target: Glc(b1-6)Glc(b1-6)Glc(b1-6)Glc(b1-6)Glc(b1-6)Glc(b1-6)Glc(b1-6)Glc
In short: as §1

[18] = target: Glc(b1-6)Glc(b1-6)Glc(b1-6)Glc(b1-6)Glc(b1-6)Glc(b1-6)Glc(b1-6)Glc(b1-6)Glc
In short: as §1

[19] = target: Glc(b1-6)Glc(b1-6)Glc(b1-6)Glc(b1-6)Glc(b1-6)Glc(b1-6)Glc(b1-6)Glc(b1-6)Glc(b1-6)Glc
In short: as §1

[20] = target: Glc(b1-6)Glc(b1-6)Glc(b1-6)Glc(b1-6)Glc(b1-6)Glc(b1-6)Glc(b1-6)Glc(b1-6)Glc(b1-6)Glc(b1-6)Glc
In short: as §1

[21] = target: Glc(b1-6)Glc(b1-6)Glc(b1-6)Glc(b1-6)Glc(b1-6)Glc(b1-6)Glc(b1-6)Glc(b1-6)Glc(b1-6)Glc(b1-6)Glc(b1-6)Glc
In short: as §1

[22] = target: Glc(b1-6)Glc(b1-6)Glc(b1-6)Glc(b1-6)Glc(b1-6)Glc(b1-6)Glc(b1-6)Glc(b1-6)Glc(b1-6)Glc(b1-6)Glc(b1-6)Glc(b1-6)Glc
In short: as §1

GlcA(b1-3)Gal = target: GlcA(b1-3)Gal
In short: as §1

[23] = target: GlcA(b1-3)Gal(b1-3)GlcNAc
In short: as §1

[24] = target: GlcA(b1-3)Gal(b1-4)GlcNAc(b1-3)Gal(b1-4)Glc
In short: as §1

[25] = target: GlcA(b1-3)Gal(b1-4)GlcNAc(b1-3)Gal(b1-4)GlcNAc(b1-3)Gal(b1-4)Glc
In short: as §1

[26] = target: GlcA(b1-3)GlcNAc(b1-4)GlcA(b1-3)GlcNAc
In short: as §1

[27] = target: GlcA(b1-3)GlcNAc(b1-4)GlcA(b1-3)GlcNAc(b1-4)GlcA(b1-3)GlcNAc(b1-4)GlcA(b1-3)GlcNAc(b1-4)GlcA(b1-3)GlcNAc(b1-4)GlcA(b1-3)GlcNAc(b1-4)GlcA(b1-3)GlcNAc
In short: as §1

[28] = target: GlcA(b1-4)GlcNAc(a1-4)GlcA(b1-4)2,5-Anhydro-Man
In short: as §1

[29] = target: GlcA(b1-4)GlcNAc(a1-4)GlcA(b1-4)GlcNAc(a1-4)GlcA(b1-4)GlcNAc(a1-4)GlcA(b1-4)2,5-Anhydro-Man
In short: as §1

GlcA3S(b1-3)Gal = target: GlcA3S(b1-3)Gal
In short: as §1

[30] = target: GlcA3S(b1-3)Gal(b1-4)GlcNAc(b1-3)Gal(b1-4)Glc
In short: as §1

[31] = target: GlcA3S(b1-3)Gal(b1-4)GlcNAc(b1-3)Gal(b1-4)GlcNAc(b1-3)Gal(b1-4)Glc
In short: as §1

GlcNAc(a1-4)Gal = target: GlcNAc(a1-4)Gal
In short: as §1

[32] = target: GlcNAc(a1-4)Gal(b1-3)[Fuc(a1-2)]Gal
In short: as §1

GlcNAc(b1-2)Fuc = target: GlcNAc(b1-2)Fuc
In short: as §1

GlcNAc(b1-2)Man = target: GlcNAc(b1-2)Man
In short: as §1

[33] = target: GlcNAc(b1-2)Man(a1-3)[GlcNAc(b1-2)Man(a1-6)]Man
In short: as §1

[34] = target: GlcNAc(b1-2)Man(a1-3)[GlcNAc(b1-2)Man(a1-6)]Man(b1-4)GlcNAc(b1-4)GlcNAc
In short: as §1

[35] = target: GlcNAc(b1-2)Man(a1-3)[GlcNAc(b1-2)Man(a1-6)]Man(b1-4)GlcNAc(b1-4)[Fuc(a1-6)]GlcNAc
In short: as §1

[36] = target: GlcNAc(b1-2)Man(a1-3)[GlcNAc(b1-2)Man(a1-6)][GlcNAc(b1-4)]Man(b1-4)GlcNAc(b1-4)GlcNAc
In short: as §1

Measured: glycan array binding signal (z-score)

B1: MIC4-A5 (Toxoplasma gondii), Q9XZH7 (protein)
chain: SPDFHDEVECVHTGNIGSKAQTIGEVKRASSLSECRARCQAEKECSHYTYNVKSGLCYPKRGKPQFYKYLGDMTGSRTCDTS
-0.321: [34] | [36]
-0.314: Glc(b1-6)Glc(b1-6)Glc
-0.308: Glc(b1-6)Glc
-0.319: [32]
-0.312: Glc(b1-4)Glc
-0.323: all other assays above
